Experimental data taken from PubChem BioAssay AID624255 (Broad Institute, 2012).
The whole screen tested about 77,000 compounds, of which about 4,600 (6%) were called active. Inconclusive results, whose numbers are uncertain, are shown with a selection of clear calls.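 Rule for the calls: active = mean inhibition above about 93%, with at least 55% of replicates each passing it (limit read from the data, passing the limit was not always enough); inconclusive = only one of those two conditions holds; inactive = neither condition holds.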

Experiment: T. cruzi intracellular proliferation inhibitors, primary screen, cell-based, beta-gal Tulahuen parasites, NIH3T3 host, luminescence (AID 624255)
Conditions: T. cruzi beta-gal in NIH3T3, GalScreen luminescence, 90 h; at 8.34 µM; active compounds read high
In the case of `CCCNC(=O)C[C@@H]1CC[C@H]2[C@H](COc3ccc(NC(=O)c4cccc(Cl)c4)cc3C(=O)N2C)O1`, the inhibition is reported as inactive: 10.7%.
With `C[C@@H]1CN([C@@H](C)CO)C(=O)c2cc(NC(=O)Cc3ccccc3)ccc2O[C@H]1CN(C)Cc1ccc(C(F)(F)F)cc1` the inhibition was inconclusive: 96.6%.
In the case of `C[C@@H]1CN([C@H](C)CO)S(=O)(=O)c2ccc(-c3ccccc3)cc2O[C@@H]1CN(C)Cc1ccccn1`, the inhibition is reported as inactive: -92.1%.
With `COc1cccc(S(=O)(=O)N(C)C[C@H]2OCc3cn(nn3)CCCC(=O)N([C@@H](C)CO)C[C@H]2C)c1` the inhibition was inactive: 42.9%.
For `C[C@@H]1CN([C@@H](C)CO)C(=O)c2cc(NS(=O)(=O)c3cn(C)cn3)ccc2O[C@@H](C)CCCCO[C@H]1CN(C)S(=O)(=O)c1cn(C)cn1`, the inhibition was inactive: -14.8%.
With `CO[C@H](CN(C)C(=O)C1CC1)[C@H](C)CN(C(=O)Nc1ccc(C(F)(F)F)cc1)[C@H](C)CO` the inhibition was active: 111%.
For `COc1ccccc1NC(=O)N1CC[C@H]2[C@@H]1c1cc(-c3ccc(F)cc3)ccc1N(C)[C@H]2CO`, the inhibition was active: 101%.
With `O=C(Nc1ccc(-c2ccccc2)cc1)[C@@H]1[C@@H](CO)[C@@H]2Cn3c(cccc3=O)[C@@H]2N1CC1CCCCC1` the inhibition was inconclusive: 95.1%.
For `OC[C@@H]1[C@H](c2ccc(C#Cc3ccccc3F)cc2)[C@H]2CN(Cc3cncnc3)CCCCN12`, the inhibition was active: 118%.
For `COc1ccc(NC(=O)Nc2ccc3c(c2)C(=O)N([C@H](C)CO)C[C@H](C)[C@@H](CN(C)C(=O)Nc2ccc(F)cc2)OCCCC[C@H](C)O3)cc1`, the inhibition was inactive: 72%.
In the case of `CCNC(=O)[C@H]1[C@H](CO)[C@H]2Cn3c(ccc(C4=CCCCC4)c3=O)[C@@H]1N2Cc1cocn1`, the inhibition is reported as inconclusive: 95.6%.
For `C[C@@H]1CN([C@H](C)CO)S(=O)(=O)c2ccc(-c3ccncc3)cc2O[C@H]1CN(C)Cc1ccccc1`, the inhibition was inconclusive: 99.1%.
In the case of `Cc1noc(C)c1NC(=O)N1C[C@@H](O)COC[C@@H]2O[C@H](CC(=O)NCC3CC3)CC[C@H]21`, the inhibition is reported as inconclusive: 101%.
With `CN1c2ccc(-c3ccc(F)cc3)cc2[C@@H]2[C@@H](CCN2C(=O)c2cccnc2)[C@H]1CO` the inhibition was inactive: 84%.
For `C[C@@H]1CCCCO[C@@H](CN(C)C(=O)Nc2cccc3ccccc23)[C@@H](C)CN([C@@H](C)CO)C(=O)c2cc(NC(=O)C3CCCCC3)ccc2O1`, the inhibition was inconclusive: 116%.
In the case of `C[C@H](CO)N1C[C@H](C)[C@@H](CN(C)S(=O)(=O)c2cn(C)cn2)Oc2cc(C#Cc3ccccc3)ccc2S1(=O)=O`, the inhibition is reported as active: 105%.
For `N#C[C@H]1[C@H](c2ccc(C#CC3CC3)cc2)[C@@H](CO)N1C(=O)c1cccc(F)c1`, the inhibition was inconclusive: 96.4%.
With `C/C=C/c1cnc2c(c1)C(=O)N([C@H](C)CO)C[C@@H](C)[C@@H](CN(C)Cc1ccc(F)cc1)O2` the inhibition was active: 119%.
In the case of `C[C@@H]1CCCCO[C@@H](CN(C)C(=O)C2CCCCC2)[C@H](C)CN([C@H](C)CO)C(=O)c2cc(N(C)C)ccc2O1`, the inhibition is reported as inconclusive: 96.1%.
With `Cc1ccccc1S(=O)(=O)N1C[C@@H](O)COC[C@@H]2O[C@H](CC(=O)N3CCN(C)CC3)CC[C@H]21` the inhibition was inconclusive: 99.2%.
With `COc1cccc(C#Cc2ccc3c(c2)O[C@H](CN(C)C(C)=O)[C@@H](C)CN([C@H](C)CO)S3(=O)=O)c1` the inhibition was inconclusive: 102%.
In the case of `CO[C@@H]1CN(C)C(=O)c2cc(NC(=O)C3CCCCC3)ccc2OC[C@H](C)N(Cc2cccnc2)C[C@@H]1C`, the inhibition is reported as inactive: 19.2%.
With `C[C@H]1CN([C@@H](C)CO)C(=O)c2cc(C#CCN(C)C)cnc2O[C@H]1CN(C)C(=O)CCN1CCCCC1` the inhibition was inactive: -40.3%.
With `CCCC#Cc1ccc2c(c1)O[C@@H](CN(C)C(=O)CC1CC1)[C@@H](C)CN([C@H](C)CO)S2(=O)=O` the inhibition was inactive: 72.6%.
With `C[C@@H]1CN([C@H](C)CO)C(=O)c2cccc(NC(=O)c3nc4ccccc4s3)c2O[C@@H]1CN(C)Cc1ccccc1` the inhibition was inconclusive: 96.6%.
With `CCCNC(=O)N1[C@H](C#N)[C@H](c2ccc(C#Cc3ccc(F)cc3)cc2)[C@@H]1CO` the inhibition was inconclusive: 95%.
For `CO[C@@H]1CN(C)C(=O)c2ccc(NC(=O)C3CCCCC3)cc2OC[C@@H](C)N(C(=O)c2ccccc2)C[C@H]1C`, the inhibition was inactive: -11.8%.
In the case of `CC(C)CC#Cc1ccc2c(c1)O[C@H](CN(C)Cc1cccnc1)[C@H](C)CN([C@@H](C)CO)S2(=O)=O`, the inhibition is reported as active: 103%.
With `C[C@@H]1CN([C@@H](C)CO)S(=O)(=O)c2ccc(C#CC3CCCC3)cc2O[C@@H]1CN(C)S(C)(=O)=O` the inhibition was inconclusive: 119%.
In the case of `C[C@@H]1CN([C@@H](C)CO)C(=O)c2cc(NC(=O)C3CCCCC3)ccc2O[C@@H](C)CCCCO[C@@H]1CN(C)S(=O)(=O)c1ccc(Cl)cc1`, the inhibition is reported as inconclusive: 96.5%.
For `C[C@@H]1CN([C@@H](C)CO)C(=O)c2cc(NC(=O)Nc3ccc(C(F)(F)F)cc3)ccc2O[C@@H](C)CCCCO[C@H]1CN(C)C`, the inhibition was inactive: 13.7%.
In the case of `Cc1noc(C)c1S(=O)(=O)N(C)C[C@H]1Oc2ccc(N(C)C)cc2CC(=O)N([C@H](C)CO)C[C@H]1C`, the inhibition is reported as inactive: 26.4%.
In the case of `O=C(C[C@@H]1CC[C@@H]2[C@H](COC[C@H](O)CN2CC2CCCCC2)O1)NCc1ccc(F)cc1`, the inhibition is reported as inconclusive: 112%.
For `C[C@@H]1CCCCO[C@@H](CN(C)Cc2ccc(C(=O)O)cc2)[C@@H](C)CN([C@H](C)CO)C(=O)c2cc(NC(=O)CCCN(C)C)ccc2O1`, the inhibition was inactive: -9.82%.
With `Cc1ccc(S(=O)(=O)Nc2ccc3c(c2)C(=O)N([C@@H](C)CO)C[C@H](C)[C@@H](CN(C)C(=O)Nc2ccc(F)cc2)OCCCC[C@H](C)O3)cc1` the inhibition was inactive: 92.5%.
For `COc1ccccc1C#Cc1ccc2c(c1)O[C@H](CN(C)Cc1ccccc1)[C@H](C)CN([C@H](C)CO)S2(=O)=O`, the inhibition was active: 121%.
With `OC[C@@H]1[C@@H](c2ccc(/C=C/c3ccccc3)cc2)[C@@H]2CN(Cc3ccncc3)CCCCN12` the inhibition was inconclusive: 112%.
